Results on 17 compounds are retold here after ChEMBL document CHEMBL1201862, “PubChem BioAssay data set” (2004).

“And” between values parts separate entries of the source, which are not always exact repeats. Equal values may be shown once.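 The compound was tested at five concentrations on cells cultured in 96-well plates, with a 48-hour exposure period. Abbreviation: GI50, concentration required for 50% inhibition of growth.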 The source made the active and inactive calls. Cut-off read from the data, not from the text of the source: active = GI50 up to about 1.1 µM and inactive = higher. Numbered stars: 1 amine (or outer) side, 2 acyl side, 3 side chain; on linkers, the order of the positions; unused ones are H or OH. Bridge positions count the residues as written; N and C are the ends. Square brackets hold non-standard residues; d marks the D form. Peptide text beside a SMILES is read from it. * marks the point of attachment. ξ: configuration not given here. X49 = CC(C)C[C@H](N[*:1])C1=N[C@H](C(=O)[*:2])CS1; ξNMePhe(4-NMe2) = CNC(Cc1ccc(N(C)C)cc1)C(=O)O; X22 = O=C([C@H]1CCC[C@H]1N[*:1])[*:2]; γGlu = O=C(O)[CH](CCC(=O)[*:2])N[*:1]; Benzoyl(4-OMe) = COc1ccc(C(=O)*)cc1; Picolinoyl(3-OH) = O=C(c1ncccc1O)*; ξPip(4-oxo) = O=C1CCNC(C(=O)O)C1; ξW = NC(Cc1c[nH]c2ccccc12)C(=O)O; Ile(3ξ) = CCC(C)[C@H](N)C(=O)O; NMeF = CN[CH](Cc1ccccc1)C(=O)O; ξLac(3-iPr) = CC(C)CC(O)C(=O)O; ξNMe2Val = CC(C)C(C(=O)*)N(C)C; 2Thi = N[CH](Cc1cccs1)C(=O)O; Allyl(1,1-Me2) = C=CC(C)(C)*; Phg = N[CH](C(=O)O)c1ccccc1; NMeV = CN[CH](C(=O)O)C(C)C; ξF = NC(Cc1ccccc1)C(=O)O; NMeA = CN[CH](C)C(=O)O; Abu = CC[CH](N)C(=O)O; Boc = CC(C)(C)OC(=O)*; ξK = NCCCCC(N)C(=O)O; ξT = CC(O)C(N)C(=O)O; OtBu = CC(C)(C)O*; βAla = NCCC(=O)O; tBu = CC(C)(C)*; NHOH = ON* Some results are limits rather than exact numbers.

The subject of the test is NCI-H322M. Briefly: inhibition of tumour cell growth, NCI panel, 48 h.
Turning to `CC1NC(=O)CNC(=O)CNC(=O)C(Cc2ccc(O)cc2)NC(=O)C(C(C)C)NC(=O)C(C)NC1=O` (configuration not stated) (cyclo(GGAAVY); configuration not given here), the GI50 was inactive: > 100 µM. As for `CCC(C)C1NC(=O)C2CCCN2C(=O)CNC(=O)C(C)NC(=O)C(Cc2ccccc2)NC(=O)C(C(C)C)NC1=O` (configuration not stated) (cyclo(GPIVFA); configuration not given here), the GI50 is inactive: > 100 µM. For the compound `C=CC(C)(C)OC[C@@H]1NC(=O)CNC(=O)[C@@H]2CCCN2C(=O)[C@H](C(C)CC)NC(=O)[C@@H]2CSC(=N2)[C@H](CC(C)C)NC1=O` (some centres not stated) (cyclo(GS(Allyl(1,1-Me2))[X49][Ile(3ξ)]P)), the GI50 was inactive: > 100 µM.

Take `CC(OC(C)(C)C)C1NC(=O)C(CCCCNC(=O)OC(C)(C)C)NC(=O)C(Cc2c[nH]c3ccccc23)NC(=O)C(Cc2ccccc2)NC(=O)[C@H]2CCC[C@H]2NC(=O)C(Cc2ccccc2)NC1=O` (some centres not stated) (cyclo([X22][ξF][ξW][ξK](Boc)[ξT](tBu)[ξF])): the GI50 is inactive: > 100 µM.

Consider `CCC(C)C1NC(=O)C2CCCN2C(=O)C(CC(C)C)OC(=O)CCNC(=O)C(C)N(C)C(=O)C(C(C)C)N(C)C1=O` (configuration not stated) (cyclo([ξLac(3-iPr)]PI[NMeV][NMeA][βAla]); configuration not given here), for which the GI50 is inactive: 10.5 µM. Turning to `CCC(C)C(NC(=O)C(Cc1cccs1)NC(=O)C(CC(C)C)NC(=O)C(CC(C)C)NC(=O)C(CCCCN)NC(=O)C(CCCNC(=N)N)NC(=O)c1ccc(OC)cc1)C(=O)NC(CC(C)C)C(N)=O` (configuration not stated) ({Benzoyl(4-OMe)}-RKLL[2Thi]IL-NH2; configuration not given here), the GI50 is inactive: > 100 µM. Turning to `CC1=C/C(O)CC(=O)Cc2nc(co2)C(=O)N2CCC=C2C(=O)OC(C(C)C)C(C)/C=C/C(=O)NC\C=C\1.CCC1NC(=O)C(NC(=O)c2ncccc2O)C(C)OC(=O)C(c2ccccc2)NC(=O)C2CC(=O)CCN2C(=O)C(Cc2ccc(N(C)C)cc2)N(C)C(=O)C2CCCN2C1=O` (configuration not stated) ({Picolinoyl(3-OH)}-T[Abu]P[ξNMePhe(4-NMe2)][ξPip(4-oxo)][Phg]; ester 1-C; configuration not given here), the GI50 is inactive: 16.7 µM. With `NC(CCC(=O)NC(CCC(=O)NO)C(=O)NCC(=O)O)C(=O)O` (configuration not stated) (γGlu-Glu(NHOH)-Gly-OH; configuration not given here), the GI50 is inactive: > 100 µM. Regarding `CC(C)C(C(=O)N(C)C(Cc1ccccc1)C(=O)N(C)C(C(=O)N(C)C(C(=O)N1CCCC1C(=O)OC(C)(C)C)C(C)C)C(C)C)N(C)C` (configuration not stated) (ξNMe2Val-[NMeF][NMeV][NMeV]P-OtBu; configuration not given here), the GI50 was inactive: 65 µM. Take `O=C1C(Br)=C(Br)C(=O)c2ccccc21` [2,3-Dibromo-1,4-naphthoquinone]: the GI50 is inactive: 28.3 µM and inactive: 16.9 µM.

`O=C1/C(=C/c2ccccc2)CCC/C1=C\c1ccccc1` [2,6-DIBENZYLIDENECYCLOHEXANONE]: the GI50 is inactive: 17.8 µM. Take `COC1=CC(=O)C=C(OC)C1=O` [2,6-DIMETHOXYQUINONE]: the GI50 was inactive: 7.85 µM. With `CC(=O)c1cc2ccccc2oc1=O` [3-ACETYLCOUMARIN], the GI50 was inactive: > 100 µM.

In the case of `O=C(/C=C/c1ccc(O)cc1)c1ccc(O)cc1` [4,4'-DIHYDROXYCHALCONE], the GI50 was inactive: 30.2 µM.

Take `O=c1cc(O)c2ccccc2o1` [4-HYDROXYCOUMARINS]: the GI50 was inactive: > 100 µM. In the case of `Nc1ncnc2c1ncn2[C@@H]1O[C@H](C(=O)O)[C@@H](O)[C@H]1O` [5'-CARBOXY ADENOSINE], the GI50 is inactive: > 100 µM. As to `O=c1[nH]c(=O)n([C@@H]2O[C@H](CO)[C@@H](O)[C@H]2O)cc1F` [5-FLUOROURIDINE], the GI50 was active: 0.437 µM.
